# Source: PubChem BioAssay AID1345082 (National Center for Advancing Translational Sciences (NCATS), 2018)
# The whole screen tested about 94,000 compounds, of which about 4,000 (4.3%) were called active. The shares of active, inactive and inconclusive entries below differ from those in the screen. Calls follow the shape of the dose curve; as a rule, active = well fitted inhibition curve with a large enough effect; inconclusive = small, poorly fitted or top-dose-only effect; inactive = no such curve, though single readings can be large or run the other way. Potencies beside an inconclusive call are fits to weak or partial responses and may not hold up.
# Assay: Cytotoxic Profiling in NIH 3T3 Cell Line of Diverse Libraries Using Quantitative High-Throughput Screening; also: nearly all actives have a fitted effect of over 55% in size
# Conditions: NIH 3T3 viability, CellTiter-Glo ATP luminescence, 48-72 h; activity change, negative = cytotoxicity: at 96.7 µM (top of the series) unless noted; series mostly up to 96.7 µM
# Summary of the method: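 Cells were seeded at 400 per well, treated with pin-transferred compound, and kept 48 or 72 hr at 37 °C before CellTiter-Glo addition and luminescence imaging of cellular ATP.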
# % is scaled to controls: 0 for no effect and ±100 for the full control effect; potency is read from the fitted curve at half-maximal effect; tags tell the direction and shape of the fitted curve.
Structure (SMILES),Potency,"activity change, negative = cytotoxicity",outcome
CCNC(=O)N1CC(C(=O)NC(C)c2ccccc2)CC(c2ccc(F)c(C)c2)C1 (stereo unspecified),"inconclusive: 39.8 µM [inhibitor, partial curve]",–,–
O=C(NC1CCCCC1)N1C[C@@H]2C[C@H](C1)c1c(NS(=O)(=O)c3ccccc3)ccc(=O)n1C2,"inconclusive: 56.2 µM [inhibitor, partial curve, poor fit]",–,–
O=C(CCn1ccn2nc3c(c2c1=O)CCCC3)Nc1cccc(C(F)(F)F)c1,–,inactive: -26.7%,–
O=C(C[C@@H]1CCNC[C@@H]1Cc1cc(CC2CCCCC2)on1)N1CCC(Cc2ccccc2)CC1,active: 25.1 µM,–,–
O=[S+]1([O-])NCC2(CCN(Cc3ccc(C(F)(F)F)cc3)C2)Nc2ccccc21 (stereo unspecified),"inconclusive: 44.7 µM [inhibitor, partial curve, poor fit]",–,–
COc1ccc(CCC(=O)N2CCC3(CC2)C(OC)CN3c2cccc(F)c2)cc1 (stereo unspecified),"inconclusive: 79.4 µM [inhibitor, partial curve, poor fit]",–,–
COc1cccc(-c2noc(CC3CCN(C(=O)c4cccc(F)c4)CC3)n2)c1,"inconclusive: 11.2 µM [inhibitor, full curve, poor fit]",–,–
CCOC(=O)c1sc(NC(=O)C[C@H]2NC(=O)c3ccccc3NC2=O)nc1C,"inconclusive: 50.1 µM [inhibitor, partial curve, poor fit]",–,–
O=C(c1ccc(C(F)(F)F)cc1)N1CCCC2(CNc3ncccc3[S+](=O)([O-])N2)C1 (stereo unspecified),–,inactive: -15.7%,–
CN(Cc1cccc(C(F)(F)F)c1)C(=O)c1ccc(Cl)nc1,"inconclusive: 44.7 µM [inhibitor, partial curve]",–,–
N#Cc1cccc(CN2CCc3nc(C(=O)NCc4ccncc4)oc3CC2)c1,–,inactive: -25.6% [at 138 µM],–
Cc1ccc(NC(=O)NCC2CCOCC2)cc1F,–,inactive: 3.55%,–
CS(=O)(=O)N1CCC2(CC1)CN(c1cccc(F)c1)C2c1ccccc1 (stereo unspecified),"inconclusive: 11.2 µM [inhibitor, full curve, poor fit]",–,–
O=C(NCc1cccc(Cl)c1)c1nc2cccnc2n(Cc2ccccc2)c1=O,"inconclusive: 50.1 µM [inhibitor, partial curve, poor fit]",–,–
COc1ccccc1Nc1ccnc(N2CCC(C(=O)NCc3cccc(C(F)(F)F)c3)CC2)n1,active: 31.6 µM,–,–
CC(C)CNC(=O)N1CCc2nc(-c3ccccc3)[nH]c2C1,–,inactive: -28.5%,–
Cc1noc(C2CCCCCN2C(=O)c2ccoc2)n1 (stereo unspecified),–,inactive: -11.9%,–
CCc1ccc(N2CC(c3noc(-c4ccc(OC)nc4OC)n3)CC2=O)cc1 (stereo unspecified),"inconclusive: 44.7 µM [inhibitor, partial curve, poor fit]",–,–
Cc1cnc(C)c(N2CCN(Cc3nc(-c4sccc4C)oc3C)CC2)n1,"inconclusive: 50.1 µM [inhibitor, partial curve, poor fit]",–,–
CC(C)c1noc(-c2cn(C3CCN(C(=O)c4ccccc4)CC3)nn2)n1,–,inactive: -8.34%,–
CC(C)N1CC[C@H](c2nnc(-c3ccccc3F)o2)C1,–,–,inactive [at 174 µM]

Structure (SMILES),Potency,"activity change, negative = cytotoxicity",outcome
Cc1nn(-c2ccccc2)c2c1C(C)N(C1CCN(C(=O)Nc3ccc(Cl)cc3)C1)C2=O (stereo unspecified),"inconclusive: 31.6 µM [inhibitor, partial curve]",–,–
Cc1ccc(NC(=O)N2CCC3(CC2)CC(Cc2nc(-c4ccccc4)no2)CCO3)cc1C (stereo unspecified),"inconclusive: 17.8 µM [inhibitor, full curve]",–,–
O=C(NCc1cccs1)c1ccc2nnc(C3CCOCC3)n2c1,–,inactive: -0.94%,–
COCc1nc(-c2ccc(OC3CCN(C(=O)CCc4ccc(OC)cc4)C3)cc2)no1 (stereo unspecified),"inconclusive: 44.7 µM [inhibitor, partial curve, poor fit]",–,–
O=C(c1ccc(C(F)(F)F)cc1)N1CCn2c(nn(-c3ccc([N+](=O)[O-])cc3)c2=O)C1,"inconclusive: 70.8 µM [inhibitor, single point]",–,–
O=C(Nc1cccc(F)c1)N1Cc2[nH]cnc2C[C@H]1c1nc(-c2ccc3c(c2)OCO3)no1,"inconclusive: 50.1 µM [inhibitor, partial curve, poor fit]",–,–
CCNC(=O)NC[C@@H]1C=C(C)[C@H](CC(=O)NCc2ccc(F)cc2)C[C@H]1C(C)C,"inconclusive: 79.4 µM [inhibitor, partial curve, poor fit]",–,–
CNC(=O)c1cc(C2CC2)nc2c1c(C1CCCN(C(=O)c3ccc(Cl)cc3)C1)nn2C (stereo unspecified),"inconclusive: 70.8 µM [inhibitor, single point]",–,–
c1ccc([C@@H]2CN(Cc3ccncc3)C[C@H]2COc2ccncc2)nc1,–,inactive: -16.3%,–
Oc1ccc(-c2nc(C3CC3)nc3c2CCN(Cc2ccsc2)CC3)cc1,"inconclusive: 50.1 µM [inhibitor, partial curve, poor fit]",–,–
CC(C)NC(=O)N1CCN(c2ccc3nnc(-c4ccccc4)n3n2)CC1,"inconclusive: 50.1 µM [inhibitor, partial curve, poor fit]",–,–
COc1ccccc1Nc1ccnc(N2CCC(NC(=O)c3ccccc3)CC2)n1,–,inactive: -9.77%,–
CC1=C[C@@H](CNC(=O)CC(C)(C)C)[C@H](C(C)C)C[C@H]1CC(=O)NCc1cccnc1,"inconclusive: 112 µM [inhibitor, single point]",–,–
CCC(=O)N1CCc2sc(C(=O)NCc3cccnc3)cc2C1,–,inactive: -29%,–
COc1ccc(-c2cc(N3CCCN(C(=O)c4cc5ccccc5[nH]4)CC3)n[nH]2)cc1,active: 35.5 µM,–,–
COc1ccccc1CNC(=O)C1CCN(c2nccc(Nc3ccc(C)cc3)n2)CC1,"inconclusive: 31.6 µM [inhibitor, full curve, poor fit]",–,–
COCC(=O)N1CCN(C(=O)c2nc3cccnc3n(C3CC3)c2=O)CC1,–,inactive: -21.9%,–
COCC(=O)NC[C@@H]1C=C(C)[C@H](Cc2nc3ccc(C(=O)OC)cc3[nH]2)C[C@H]1C(C)C,active: 100 µM,–,–
Cc1ccc([S+](=O)([O-])N2CCC(N3CCCNC3=O)CC2)cc1,inactive,–,–
CC(C)C[C@@H]1N[C@H](C(=O)NC2CCCC2)Cc2cn(CC3CC3)c3cccc1c23,active: 35.5 µM,–,–
Cc1ccc(-c2cc(C(=O)N3CCN(Cc4ccccc4)CC3)c3cnn(C)c3n2)cc1,"inconclusive: 44.7 µM [inhibitor, partial curve, poor fit]",–,–

Structure (SMILES),Potency,"activity change, negative = cytotoxicity",outcome
O=C1NCCCCCN(Cc2cccc(F)c2)[C@H]2CCC[C@@H]12,"inconclusive: 70.8 µM [inhibitor, partial curve, poor fit]",–,–
O=C(Nc1nc2ccccc2s1)c1ccc2c(c1)OCCN(CCC(F)(F)F)C2,"inconclusive: 22.4 µM [inhibitor, full curve, poor fit]",–,–
CCS[C@H]1CCN2C(=O)c3cc(-c4ccccc4F)ccc3NC(=O)[C@H]12,"inconclusive: 79.4 µM [inhibitor, partial curve, poor fit]",–,–
COc1ccc(-c2cc(N3CCCC(NC(=O)c4ccc(OC)c(OC)c4)C3)n[nH]2)cc1 (stereo unspecified),"inconclusive: 50.1 µM [inhibitor, partial curve, poor fit]",–,–
O=C1CC2(CCN(C(=O)c3ccccc3F)CC2)Oc2ccccc21,"inconclusive: 50.1 µM [inhibitor, partial curve, poor fit]",–,–
C[C@H]1CN(C(=O)c2ccc(F)cc2)C[C@@H]1c1nc(-c2ccccc2)no1,"inconclusive: 50.1 µM [inhibitor, partial curve, poor fit]",–,–
COC(=O)c1ccc(NC(=O)N2CCC3(CC2)N(CC2CC2)C(=O)CS3=O)cc1 (stereo unspecified),–,inactive: -1.2%,–
CCn1ncc(N2CCC(NC(=O)CCC3CCCCC3)CC2)cc1=O,"inconclusive: 50.1 µM [inhibitor, partial curve, poor fit]",–,–
O=C(Nc1cccc(C(F)(F)F)c1)c1nnn2c1CN(Cc1ccccc1F)C(=O)CC2,"inconclusive: 17.8 µM [inhibitor, full curve, poor fit]",–,–
C=CCOc1c(OC)ccc2c1CN(C1CCCC1)C(=O)CCN2CC(O)Cc1ccccc1 (stereo unspecified),"inconclusive: 44.7 µM [inhibitor, partial curve, poor fit]",–,–
Cc1cc(C)cc(-c2ccc(CN)cc2)c1,"inconclusive: 22.4 µM [inhibitor, full curve, poor fit]",–,–
Cc1ccc(-c2ccccc2CN2CCN(C(=O)c3cccc(Cl)c3)CC2)cc1Cl,"inconclusive: 50.1 µM [inhibitor, partial curve, poor fit]",–,–
C=C(C)CN(CC)C(=O)c1c(C)oc2c1CN(Cc1cccc(F)c1)CC2,"inconclusive: 44.7 µM [inhibitor, partial curve, poor fit]",–,–
C=CCn1cc2c3c(cccc31)[C@H](CC(C)C)N[C@H](C(=O)NCc1ccccc1)C2,"inconclusive: 112 µM [inhibitor, partial curve, poor fit]",–,–
COc1cccc([S+](=O)([O-])N2CCC3(CC2)C(=NC2CCCCC2)NC(=O)N3c2cccnc2)c1,"inconclusive: 44.7 µM [inhibitor, partial curve, poor fit]",–,–
CCCNC(=O)N(C1CCOCC1)C1CCN(C(=O)CCc2ccc(OC)cc2)CC1,"inconclusive: 50.1 µM [inhibitor, partial curve, poor fit]",–,–
CCn1nc(C)c(CNC(=O)c2cc(COc3ccc4ncccc4c3)on2)c1C,"inconclusive: 31.6 µM [inhibitor, partial curve, poor fit]",–,–
O=C1NCc2ccccc2CC12CCN(Cc1ccc(Br)cc1)C2 (stereo unspecified),"inconclusive: 50.1 µM [inhibitor, partial curve, poor fit]",–,–
Cc1cc(=O)n(CC(=O)Nc2cccc(C(C)C)c2)c(N2CCc3ccccc3C2)n1,"inconclusive: 28.2 µM [inhibitor, partial curve, poor fit]",–,–
